This is one part of the list. Repeats are few or missing, and single values can be far off.
Assays:
Assay in all cases: cell count relative to DMSO control; melanoma cells; higher = more viable cells
Details in all cases: library dose: standard library concentration; 72 h; first compound 2 µM
[1] = test system: G361
[2] = test system: IPC-298
[3] = test system: IST-MEL1
[4] = test system: LB2518-MEL
[5] = test system: LOXIMVI
[6] = test system: MEL-HO
[7] = test system: MZ2-MEL
[8] = test system: MeWo
[9] = test system: RPMI7951
[10] = test system: RVH-421
[11] = test system: SkMel28
[12] = test system: SkMel2
[13] = test system: SkMel30
[14] = test system: SkMel5
[15] = test system: UACC257
[16] = test system: UACC62
[17] = test system: WM115
[18] = test system: WM1716
[19] = test system: WM1745
[20] = test system: WM3526
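Also: cells treated in 1,536-well plates, then fixed and DAPI-stained, with nuclei counted from automated high-throughput microscope images.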

| Compound | cell count [1] [%] | cell count [2] [%] | cell count [3] [%] | cell count [4] [%] | cell count [5] [%] | cell count [6] [%] | cell count [7] [%] | cell count [8] [%] | cell count [9] [%] | cell count [10] [%] | cell count [11] [%] | cell count [12] [%] | cell count [13] [%] | cell count [14] [%] | cell count [15] [%] | cell count [16] [%] | cell count [17] [%] | cell count [18] [%] | cell count [19] [%] | cell count [20] [%] |
| --- | --- | --- | --- | --- | --- | --- | --- | --- | --- | --- | --- | --- | --- | --- | --- | --- | --- | --- | --- | --- |
| CCCCCCCCCCCCCCCCCCOP(=O)([O-])OC1CC[N+](C)(C)CC1 [Perifosine] + Cn1sc(=O)n(Cc2ccccc2)c1=O [TDZD-8] (partner dose 2 µM) | 87.5 | 81.1 | 93.8 | 78.3 | 103 | 102 | 91.3 | 83 | 33.4 | 111 | 65.2 | 89.5 | 103 | 98.2 | 99.6 | 99.7 | 81.1 | 88.1 | 59.6 | 77.8 |
| C[C@@H](N)c1ccc(C(=O)Nc2ccnc3[nH]ccc23)cc1 + Cn1sc(=O)n(Cc2ccccc2)c1=O [TDZD-8] (partner dose 2 µM) | 84.5 | 73.8 | 107 | 77.2 | 98.3 | 51.1 | 49.6 | 64.6 | 40.2 | 30 | 73.1 | 78.6 | 81.7 | 53 | 53.2 | 84.6 | 92.2 | 11 | 40.9 | 83.9 |
| Cn1sc(=O)n(Cc2ccccc2)c1=O + NC(=O)Nc1cc(-c2cccc(F)c2)sc1C(=O)N[C@H]1CCCNC1 [AZD7762] (partner dose 0.1 µM) | 93 | 93.9 | 90.7 | 64.5 | 91 | 89.2 | 107 | 80.4 | 60.6 | 102 | 35.2 | 93.1 | 108 | 81.7 | 114 | 68.5 | 80.7 | 89.1 | 87.6 | 64.3 |
| C[C@@H](N)c1ccc(C(=O)Nc2ccnc3[nH]ccc23)cc1 + O=C(CCCCCCC(=O)Nc1ccccc1)NO [vorinostat] (partner dose 0.4 µM) | 70.1 | 88.7 | 104 | 85.2 | 79.9 | 85.1 | 48.3 | 74.8 | 60.2 | 45.2 | 32.5 | 73.9 | 78.3 | 56.2 | 46.1 | 67.1 | 91.8 | 24 | 68.2 | 90.6 |
| Cn1sc(=O)n(Cc2ccccc2)c1=O + CS(=O)(=O)CCNCc1ccc(-c2ccc3ncnc(Nc4ccc(OCc5cccc(F)c5)c(Cl)c4)c3c2)o1 [lapatinib] (partner dose 4 µM) | 70.5 | 81.4 | 88.9 | 89.4 | 87.7 | 79.6 | 61.9 | 84.7 | 53.5 | 94.3 | 94 | 65.3 | 78.7 | 59.3 | 81.9 | 62.5 | 79.6 | 84.3 | 75.3 | 74.1 |
| Cn1sc(=O)n(Cc2ccccc2)c1=O + CNC(=O)c1cc(Oc2ccc(NC(=O)Nc3ccc(Cl)c(C(F)(F)F)c3)cc2)ccn1 [sorafenib] (partner dose 2 µM) | 108 | 84.5 | 98.9 | 80.3 | 164 | 96.5 | 112 | 82.6 | 60.2 | 85.5 | 85.6 | 86.2 | 77.6 | 77.2 | 81.3 | 123 | 115 | 114 | 88.1 | 87.1 |
| C[C@@H](N)c1ccc(C(=O)Nc2ccnc3[nH]ccc23)cc1 + C=CCNC1=C2C[C@@H](C)C[C@H](OC)[C@H](O)[C@@H](C)/C=C(\C)[C@H](OC(N)=O)[C@@H](OC)/C=C\C=C(/C)C(=O)NC(=CC1=O)C2=O [Tanespimycin] (partner dose 0.01 µM) | 47.4 | 84.8 | 60.2 | 76.3 | 103 | 66.9 | 50.9 | 66.4 | 8.31 | 61.6 | 41.3 | 96.9 | 86.6 | 48.3 | 74 | 47.3 | 24.8 | 29.3 | 38.1 | 67.8 |
| Cn1sc(=O)n(Cc2ccccc2)c1=O + CS(=O)(=O)c1ccc(C(=O)Nc2ccc(Cl)c(-c3ccccn3)c2)c(Cl)c1 [vismodegib] (partner dose 5 µM) | 100 | 93.7 | 110 | 89.1 | 110 | 94.9 | 94.1 | 79.9 | 87.8 | 118 | 100 | 111 | 106 | 114 | 114 | 100 | 93.3 | 100 | 87.8 | 101 |
| C[C@@H](N)c1ccc(C(=O)Nc2ccnc3[nH]ccc23)cc1 + OCCn1cc(-c2cnc3nnn(Cc4ccc5ncccc5c4)c3n2)cn1 [PF04217903] (partner dose 5 µM) | 77 | 91.5 | 82.4 | 77.8 | 84.9 | 77.2 | 66.3 | 76.4 | 61.9 | 34.6 | 93.3 | 116 | 97.4 | 62.9 | 70.1 | 79.5 | 94.1 | 53.9 | 49 | 119 |
| CCCCCCCCCCCCCCCCCCOP(=O)([O-])OC1CC[N+](C)(C)CC1 [Perifosine] + CNC(=O)c1cc(Oc2ccc(NC(=O)Nc3ccc(Cl)c(C(F)(F)F)c3)cc2)ccn1 [sorafenib] (partner dose 2 µM) | 92 | 68.7 | 115 | 82.4 | 105 | 89.2 | 106 | 92.6 | 51.6 | 117 | 67.5 | 81.8 | 91.4 | 94.3 | 87.3 | 89.4 | 101 | 103 | 94 | 86.8 |
| C[C@@H](N)c1ccc(C(=O)Nc2ccnc3[nH]ccc23)cc1 + Cc1ccc(NC(=O)c2cccc(N(C)C)c2)cc1NC(=O)c1ccc(O)cc1 [ZM336372] (partner dose 10 µM) | 86.2 | 90 | 85.4 | 101 | 88.4 | 72.3 | 53.6 | 99 | 60.1 | 68.5 | 80.2 | 98.5 | 81.1 | 62.9 | 65.7 | 84.8 | 84.5 | 68.3 | 59.8 | 84.8 |
| CCCCCCCCCCCCCCCCCCOP(=O)([O-])OC1CC[N+](C)(C)CC1 [Perifosine] + O=c1[nH]nc(Sc2ncc([N+](=O)[O-])s2)n1-c1ccc2c(c1)OCCO2 [BI78D3] (partner dose 1 µM) | 98.7 | 88.4 | 102 | 98.8 | 110 | 109 | 104 | 108 | 35.4 | 86.4 | 79.8 | 110 | 87.6 | 91.1 | 99.8 | 68.4 | 110 | 107 | 87.2 | 118 |
| CCCCCCCCCCCCCCCCCCOP(=O)([O-])OC1CC[N+](C)(C)CC1 [Perifosine] + OCCn1cc(-c2cnc3nnn(Cc4ccc5ncccc5c4)c3n2)cn1 [PF04217903] (partner dose 5 µM) | 71.6 | 21.8 | 80.1 | 36.3 | 39.6 | 55.8 | 36.2 | 81.1 | 8.07 | 92.9 | 16.8 | 49.4 | 80.6 | 98.7 | 84.5 | 56.9 | 79.6 | 68.7 | 19.4 | 74.5 |
| Cn1sc(=O)n(Cc2ccccc2)c1=O + O=C(Nc1cccc(Cl)c1)Nc1ncc(CCNc2ncnc3ccsc23)s1 [SNS314] (partner dose 0.004 µM) | 71 | 83.6 | 48.3 | 74.5 | 66.6 | 80.6 | 87.9 | 67.9 | 65.2 | 103 | 45.7 | 87.4 | 84.2 | 68.2 | 67 | 106 | 61.3 | 50.3 | 76.8 | 72.6 |
| CCCCCCCCCCCCCCCCCCOP(=O)([O-])OC1CC[N+](C)(C)CC1 [Perifosine] + COc1cc2c(Oc3ccc4[nH]c(C)cc4c3F)ncnc2cc1OCCCN1CCCC1 [cediranib] (partner dose 2 µM) | 96.3 | 110 | 109 | 108 | 70.5 | 97.6 | 107 | 97.3 | 27.3 | 94.4 | 105 | 85.9 | 86.6 | 91.1 | 99.3 | 96.5 | 103 | 111 | 94.7 | 84.5 |
| CCCCCCCCCCCCCCCCCCOP(=O)([O-])OC1CC[N+](C)(C)CC1 [Perifosine] + C=C(c1ccc(C(=O)O)cc1)c1cc2c(cc1C)C(C)(C)CCC2(C)C [Bexarotene] (partner dose 10 µM) | 86.1 | 75 | 83.2 | 114 | 91.8 | 88.1 | 66.8 | 95.1 | 42.8 | 110 | 82.6 | 83 | 76.5 | 76.7 | 80.2 | 101 | 76.1 | 77.8 | 81.2 | 81.9 |
| Cn1sc(=O)n(Cc2ccccc2)c1=O + CC(C)(C)c1cnc(CSc2cnc(NC(=O)C3CCNCC3)s2)o1 [SNS-032] (partner dose 0.05 µM) | 103 | 108 | 91.3 | 97.2 | 43 | 88.4 | 92.5 | 84.9 | 20.6 | 71.7 | 63.9 | 70.9 | 77.4 | 55.1 | 97.8 | 64.1 | 78.4 | 90.3 | 93.1 | 73.5 |
| C[C@@H](N)c1ccc(C(=O)Nc2ccnc3[nH]ccc23)cc1 + O=C(O)[C@@H]1[O][Sb](=[O])([O][Sb]2(=[O])[O][C@H]([C@H](O)CO)[C@H](O)[C@H](C(=O)O)[O]2)[O][C@H]([C@H](O)CO)[C@@H]1O [stibogluconate] (partner dose 10 µM) | 110 | 113 | 106 | 186 | 124 | 76.2 | 62.4 | 72.1 | 60.1 | 79.9 | 127 | 117 | 85.6 | 53.9 | 70.8 | 105 | 102 | 48.9 | 54.5 | 89.3 |
| Cn1sc(=O)n(Cc2ccccc2)c1=O + c1cc(-c2cnn3cc(-c4ccc(OCCN5CCCCC5)cc4)cnc23)ccn1 [Dorsomorphin] (partner dose 2 µM) | 72.5 | 79.2 | 90.9 | 59.7 | 84.8 | 80.8 | 84.4 | 62.6 | 54.3 | 103 | 57.4 | 98.2 | 93 | 61.7 | 78.3 | 58.3 | 61.1 | 71.5 | – | 88.4 |

From the supplement of paper PMC4604168 (melanoma cell lines)
